Assay results published in US12583848B2, “Isoxazole-3-carboxamide derivatives and their use for treatment of diseases caused by virus infection” (Collaborations Pharmaceuticals, Inc., priority 2019, dated 2026).

Tested on: cytokines and chemokines in lung homogenates
Details: mouse, in vivo

For `Cc1cc(-c2noc(C(F)(F)F)n2)ccc1OCCCc1cc(C(=O)N(C)C)no1` [Compound 8, N,N-dimethyl-5-(3-{2-methyl-4-[5-(trifluoromethyl)-1,2,4-oxadiazol-3-yl]phenoxy}propyl)isoxazole-3-carboxamide], the “lung concentration of IL-1α” value was “increase”, the “lung concentration of IL-1α vs placebo” value was “increased” and the “lung concentration of IL-1β” value was “increase”. For the same compound, the “lung concentration of IL-1β vs placebo” value was “increased”, the “lung concentration of IL-5 vs placebo” value was “increased” and the “lung concentration of IL-6” value was “increased”. For the same compound, the “lung concentration of IL-10” value was “increase”.
